# Inconclusive means that the source gave no clear call. Such entries were picked first, then a sample of the others. No potency is given beside an inconclusive call; the fits are too rough. Active and inactive are the calls of the source. Calls come from the whole dose curve; as a rule, active = well fitted inhibition curve with a large enough effect; inconclusive = small, poorly fitted or top-dose-only effect; inactive = flat fitted curve, though single readings scatter.
# Biological target: Phospholipid hydroperoxide glutathione peroxidase GPX4 (Homo sapiens) (UniProt P36969)
# Assay: Primary qHTS Assay for Inhibitors of Recombinant Selenoprotein Glutathione Peroxidase 4 (GPX4) (AID 1845192); note: nearly all actives have a fitted effect of over 65% in size
# Settings: recombinant GPX4, GR-coupled NADPH fluorescence, 15 min; series mostly up to 50 µM; activity change, negative = inhibition: at the top concentration
# Summary of the method: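 Steps: GPX4 plus compound, 30 min RT; add GR/GSH/NADPH master mix; start with cumene hydroperoxide; read 340/450 nm fluorescence at 0 and 15 min. Finals were 200 nM GPX4, 1 mM GSH, 0.5 mM CHP, 0.5 mM NADPH, 100 nM GR.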
# % is set by controls: 0 for no effect and ±100 for the full control effect; potency is the fitted concentration of half-maximal effect; tags give direction and shape of the fitted curve.
# Chain of UniProt P36969 (P36969 whole entry, looked up): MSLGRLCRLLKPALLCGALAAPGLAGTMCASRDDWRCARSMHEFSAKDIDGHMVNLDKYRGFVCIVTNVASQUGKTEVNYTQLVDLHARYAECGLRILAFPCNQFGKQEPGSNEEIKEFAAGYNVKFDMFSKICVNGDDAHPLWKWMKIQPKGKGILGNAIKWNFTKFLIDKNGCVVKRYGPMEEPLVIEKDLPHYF
SMILES,Potency,"activity change, negative = inhibition",outcome
CCOC(=O)N[C@@H]1CC[C@@H]2[C@@H](C1)C[C@H]1C(=O)O[C@H](C)C1[C@H]2/C=C/c1ccc(-c2cccc(F)c2)cn1 (stereo partly specified),"inconclusive [inhibitor, partial curve]",,
CN[C@@H](C)C(=O)N[C@H](C(=O)N1CCC[C@H]1C(=O)Nc1sc(-c2ncco2)nc1-c1ccccc1)C1CCCCC1,"inconclusive [inhibitor, single point]",,
C=CC(=O)N1CCC(CNc2ncnc(N)c2-c2ccc(Oc3ccccc3)cc2)CC1,,inactive: 0.53%,
C#C[C@]1(O)CC[C@@H]2[C@@H]3CCC4=CCCC[C@@H]4[C@H]3C(=C)C[C@@]21CC,"inconclusive [inhibitor, partial curve]",,
Cc1cncc(CN2CCC(=C3c4ccc(Cl)cc4CCc4cccnc43)CC2)c1,"inconclusive [inhibitor, single point]",,
CCOC(=O)[C@H](C)C[C@@H](Cc1ccc(-c2ccccc2)cc1)NC(=O)CCC(=O)O,"inconclusive [inhibitor, partial curve, poor fit]",,
CC(=O)CCC1C(=O)N(c2ccccc2)N(c2ccccc2)C1=O,"inconclusive [inhibitor, single point]",,
CCCCCCCCCCCCCCCCOc1nc2ccc(C)cc2c(=O)o1,"inconclusive [inhibitor, partial curve]",,
COC[C@H]1C[C@@H](c2ncc(-c3ccc4c(c3)COc3cc5c(ccc6[nH]c([C@@H]7CC[C@H](C)N7C(=O)[C@@H](NC(=O)OC)C(C)C)nc65)cc3-4)[nH]2)N(C(=O)[C@H](NC(=O)OC)c2ccccc2)C1,"inconclusive [inhibitor, single point]",,
C[N+](C)(C)CCOP(=O)([O-])OP(=O)(O)OC[C@H]1OC(n2ccc(N)nc2=O)[C@H](O)[C@@H]1O (stereo partly specified),,inactive: 0.205% [at 0.409 µM],
CCc1ccc(Nc2c(F)c(F)cc(F)c2F)c(CC(=O)O)c1,"inconclusive [inhibitor, single point]",,
O=C(O)C[C@H]1CCc2c1[nH]c1ccc(OCc3ccc(C4CCCC4)c(C(F)(F)F)c3)cc21,"inconclusive [inhibitor, single point]",,
COc1cc([C@@H]2c3cc4c(cc3[C@@H](O[C@@H]3O[C@@H]5CO[C@@H](C)O[C@H]5[C@H](O)[C@H]3O)[C@H]3COC(=O)[C@H]23)OCO4)cc(OC)c1OP(=O)(O)O,"inconclusive [inhibitor, partial curve]",,
C=C1/C(=C/C=C2\CCC[C@]3(C)[C@@H]([C@H](C)CCCC(O)(C(F)(F)F)C(F)(F)F)CC[C@@H]23)C[C@@H](O)C[C@@H]1O,active: 14.1 µM,,
C=C1/C(=C/C=C2\CCC[C@]3(C)[C@@H]([C@H](C)CC[C@@H](O)C(C)C)CC[C@@H]23)C[C@@H](O)C[C@@H]1O,active: 15.8 µM,,
CN(Cc1ccccc1)C(=O)[C@H](NC(=O)c1cc2cc(NC(=O)c3ccccc3-c3ccc(C(F)(F)F)cc3)ccc2n1C)c1ccccc1,"inconclusive [inhibitor, partial curve]",,

SMILES,Potency,"activity change, negative = inhibition",outcome
O=c1c2c(c1=O)N(CCP(=O)(O)O)CCCN2,,,inactive [at 100 µM]
CCCCCCCCCCCCOC(=O)CS(=O)(=O)O,active: 14.1 µM,,
O=C(O)c1ccc2nc(-c3cc(Cl)cc(Cl)c3)oc2c1,"inconclusive [inhibitor, single point]",,
CC[C@H](C)C1NC(=O)[C@H](Cc2ccc(O)cc2)NC(=O)[C@@H](N)CSSC[C@@H](C(=O)N2CCC[C@H]2C(=O)N[C@@H](CC(C)C)C(=O)NCC(N)=O)NC(=O)[C@H](CC(N)=O)NC(=O)[C@H](CCC(N)=O)NC1=O (stereo partly specified),"inconclusive [inhibitor, single point]",,
CC(C)CCC[C@@H](C)[C@H]1CC[C@H]2[C@@H]3CC[C@H]4C[C@@H](O)CC[C@]4(C)[C@@H]3CC[C@]12C,"inconclusive [inhibitor, partial curve, poor fit]",,
CO[C@H]1/C=C/O[C@@]2(C)Oc3c(C)c(O)c4c(O)c(c5c(nc6cc(C)ccn65)c4c3C2=O)NC(=O)/C(C)=C\C=C\[C@H](C)[C@H](O)[C@@H](C)[C@@H](O)[C@@H](C)[C@H](OC(C)=O)[C@@H]1C,"inconclusive [inhibitor, single point]",,
O=c1oc2c(C3OCCCO3)c(O)ccc2c2c1CNCC2,active: 14.3 µM,,
Cc1c(Cl)cccc1S(=O)(=O)Nc1nc(CCN2CCOCC2=O)cs1,,inactive: -27.6%,
CN1CCN(C(=O)c2ccc(-c3ccc4c(C=O)c(O)ccc4c3)s2)CC1,"inconclusive [inhibitor, partial curve]",,
Cn1cc(/C=C/C(=O)c2cccc(F)c2)cc1/C=C/C(=O)NO,"inconclusive [inhibitor, single point]",,
N=C1S/C(=C\c2ccc(-c3ccc4c(c3)C(=O)NC4=O)o2)C(=O)N1c1ccc(Br)cc1,"inconclusive [inhibitor, partial curve]",,
C=CC[N@@+]12CC[C@]34c5ccccc5N5/C=C6\C7N(/C=C(\C53)[C@@H](C[C@@H]41)/C(=C/CO)C2)c1ccccc1[C@@]71CC[N@@+]2(CC=C)C/C(=C\CO)[C@@H]6C[C@@H]12 (stereo partly specified),"inconclusive [inhibitor, partial curve]",,
C=C1C/C(=C\C=C2/CCC[C@]3(C)[C@@H]([C@H](C)/C=C/C(C)C(C)C)CC[C@@H]23)[C@@H](O)C[C@@H]1O (stereo partly specified),"inconclusive [inhibitor, partial curve]",,
CCC(=O)O[C@]1(C(=O)COC(C)=O)CC[C@H]2[C@@H]3C[C@H](C)C4=CC(=O)C=C[C@]4(C)[C@H]3[C@@H](O)C[C@@]21C,"inconclusive [inhibitor, partial curve]",,
COc1ccc(C(=O)N2CCN(C(=O)/C=C/c3ccc(Br)cc3)CC2)cc1,,,inactive
